Here are results for 115 sequences from the BET-seq Pho4 binding data (Le et al. 2018).

The other results are listed elsewhere or left out. Values were computed here from the reads of four pooled replicates and scatter widely.

For this experiment, the target named is T1, Pho4 (S. cerevisiae) (UniProt P07270).
T1 sequence: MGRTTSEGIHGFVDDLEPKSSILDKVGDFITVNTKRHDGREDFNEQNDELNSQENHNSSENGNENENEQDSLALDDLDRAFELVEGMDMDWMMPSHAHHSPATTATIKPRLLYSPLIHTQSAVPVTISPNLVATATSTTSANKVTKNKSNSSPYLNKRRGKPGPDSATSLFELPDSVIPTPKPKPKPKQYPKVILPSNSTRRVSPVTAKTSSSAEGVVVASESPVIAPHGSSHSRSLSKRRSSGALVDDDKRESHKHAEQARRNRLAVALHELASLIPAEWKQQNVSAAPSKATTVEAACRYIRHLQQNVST
Description: relative binding free energy (BET-seq); higher = weaker binding. The settings on record: reference: library average.
As to ATTGTCACGTGTGAAT, the “relative binding free energy” value was determined as 0.22 kcal/mol. With CTCTTCACGTGTAGGG the figure was 0.16 kcal/mol; with CGGGGCACGTGAGATT, 0.28 kcal/mol. For GCGGACACGTGGTGAT the value was 0.02 kcal/mol; for GCGGCCACGTGTTGTG, 0.05 kcal/mol. With GGATTCACGTGGAGGC the figure was 0.29 kcal/mol; with AGAAGCACGTGCGGGT, -0.12 kcal/mol; with CAAGGCACGTGGGGTT, -0.22 kcal/mol. Regarding GGTTGCACGTGTTTTC, the “relative binding free energy” value stood at 0.22 kcal/mol. With GATAGCACGTGGGTGC the figure was -0.16 kcal/mol; with TTTTGCACGTGAAAGT, 0.27 kcal/mol. GCTGTCACGTGTGGAT: the “relative binding free energy” value was 0.04 kcal/mol. For ATCGTCACGTGGCGTT the value was 0.04 kcal/mol; for AGTTGCACGTGCCAGG, -0.06 kcal/mol. With TGTTGCACGTGATTTT, the “relative binding free energy” value was 0.12 kcal/mol.

With GTGTTCACGTGTAAGC, the “relative binding free energy” value amounted to 0.4 kcal/mol. With CCGGTCACGTGTGGCT the figure was 0.21 kcal/mol. As for TCGGGCACGTGTCGCG, the “relative binding free energy” value is -0.04 kcal/mol.

In the case of AGGGCCACGTGGTGGA, the “relative binding free energy” value is -0.16 kcal/mol. For GGGGACACGTGATGAT the value was 0.35 kcal/mol; for GGTATCACGTGTGGAC, 0.34 kcal/mol. For GAGGGCACGTGAGTAA the value was 0.15 kcal/mol.

Take CGTGTCACGTGACAGG: the “relative binding free energy” value worked out at 0.18 kcal/mol. For CGTTTCACGTGCTTTG the value was 0.32 kcal/mol; for TGTATCACGTGGAGTC, 0.31 kcal/mol; for GTTAGCACGTGAGCTG, 0.12 kcal/mol. With ATTATCACGTGAAAGG the figure was 0.42 kcal/mol.

Take CTTTGCACGTGGGGAA: the “relative binding free energy” value was -0.12 kcal/mol. For GGTGTCACGTGGGGGA the value was 0.08 kcal/mol; for AGGTTCACGTGGGCGA, 0.17 kcal/mol; for CTGGACACGTGTGGAA, 0.16 kcal/mol. For GAGGCCACGTGTGTTT the value was 0.13 kcal/mol; for GTTTTCACGTGTTCAA, 0.26 kcal/mol. With TTGTCCACGTGTCGGG the figure was -0.06 kcal/mol; with GTGTCCACGTGTCTAG, 0.24 kcal/mol.

TGGTGCACGTGTTAAC: the “relative binding free energy” value was -0.02 kcal/mol.

Turning to TACGGCACGTGGCGGG, the “relative binding free energy” value was -0.18 kcal/mol. With TTTGACACGTGATTGG the figure was 0.11 kcal/mol; with GGTTTCACGTGATTTT, 0.42 kcal/mol; with ATGAGCACGTGTTACG, -0.09 kcal/mol. With GCTGGCACGTGGGTTC the figure was -0.03 kcal/mol. For GAAGGCACGTGAAGTT the value was 0.23 kcal/mol; for TGTGTCACGTGGAATT, 0.12 kcal/mol; for TTCTACACGTGGGATT, 0.08 kcal/mol. Turning to GTCTTCACGTGTTTTG, the “relative binding free energy” value is 0.24 kcal/mol. With TAAGTCACGTGTTAGA the figure was 0.08 kcal/mol; with ATGTGCACGTGGGACG, -0.07 kcal/mol.

Consider AGTTACACGTGATATG, for which the “relative binding free energy” value came out at 0.29 kcal/mol.

Consider AGGTTCACGTGCTCGG, for which the “relative binding free energy” value was 0.15 kcal/mol.

Consider TCGGCCACGTGGTTGT, for which the “relative binding free energy” value is -0.07 kcal/mol. With ATATGCACGTGTTGCT the figure was 0.01 kcal/mol; with GATGGCACGTGGGACG, -0.18 kcal/mol. For TTGGGCACGTGTGACC the value was 0 kcal/mol; for GTTGGCACGTGAGGGT, 0.25 kcal/mol. For AGGGGCACGTGTCGGG the value was -0.18 kcal/mol; for GTCAGCACGTGTGTTG, -0.1 kcal/mol; for TTTGCCACGTGCAGTG, -0.07 kcal/mol. Consider TGAGGCACGTGTGAGC, for which the “relative binding free energy” value is -0.19 kcal/mol. For GGGGTCACGTGTAGTC the value was 0.19 kcal/mol; for TGAGGCACGTGTCGAG, -0.09 kcal/mol; for CGCGTCACGTGGGTTA, -0.15 kcal/mol. As for TTATCCACGTGAGTTT, the “relative binding free energy” value amounted to 0.23 kcal/mol. For TTCGGCACGTGGTGTC the value was -0.21 kcal/mol; for TGTAACACGTGTGTCT, 0.02 kcal/mol.

On to GAAGTCACGTGGGGGC, for which the “relative binding free energy” value was 0.04 kcal/mol.

Consider CATGACACGTGTGTGT, for which the “relative binding free energy” value was 0.02 kcal/mol. For GCATGCACGTGGGGGG the value was -0.17 kcal/mol; for GGGGACACGTGTGGTT, 0.11 kcal/mol.

Take GGGCGCACGTGGGACT: the “relative binding free energy” value is -0.03 kcal/mol.

With TTTTTCACGTGTCATA, the “relative binding free energy” value is 0.26 kcal/mol. For TTTTCCACGTGGTTCA the value was 0.13 kcal/mol. For TATTTCACGTGCAATG the value was 0.24 kcal/mol; for TTGGGCACGTGGCGGT, -0.1 kcal/mol.

For TGGCTCACGTGGGGTA, the “relative binding free energy” value stood at 0.13 kcal/mol.

For TGTAACACGTGTACTG, the “relative binding free energy” value is -0.04 kcal/mol. Consider TTAAGCACGTGTTCTT, for which the “relative binding free energy” value was -0.16 kcal/mol.

For ATGTACACGTGAGTCG, the “relative binding free energy” value came to 0.27 kcal/mol.

On to GGTCGCACGTGTATAG, for which the “relative binding free energy” value worked out at 0.05 kcal/mol.

Regarding TCGGCCACGTGGTTGG, the “relative binding free energy” value was -0.01 kcal/mol. In the case of TATGTCACGTGGTAGT, the “relative binding free energy” value was determined as 0 kcal/mol.

Regarding ATTGGCACGTGGATCT, the “relative binding free energy” value is -0.13 kcal/mol. For CTTTACACGTGCGGGG the value was 0.16 kcal/mol. For ATGTGCACGTGCGAGG the value was -0.06 kcal/mol. With GATAGCACGTGAGTGG the figure was 0.19 kcal/mol. On to TTGAGCACGTGCAAGT, for which the “relative binding free energy” value is -0.03 kcal/mol. As for ATCGACACGTGTTGTA, the “relative binding free energy” value was determined as 0.1 kcal/mol. With GCCTTCACGTGGGTTT the figure was 0.32 kcal/mol; with ATTAACACGTGTAGCT, 0.1 kcal/mol; with GCTGTCACGTGAGAGA, 0.52 kcal/mol. With GGAATCACGTGTTGGG, the “relative binding free energy” value was found to be 0.23 kcal/mol. For AATTACACGTGAGTTG the value was 0.39 kcal/mol; for GGGGTCACGTGATATT, 0.34 kcal/mol; for TGATCCACGTGAGGTT, 0.18 kcal/mol.

Turning to ACAGGCACGTGTTTTG, the “relative binding free energy” value was -0.09 kcal/mol. For GCCGGCACGTGTTGGT the value was -0.12 kcal/mol; for TGGAGCACGTGGACTT, 0.05 kcal/mol. For GTTTACACGTGGCCGG the value was 0.18 kcal/mol; for CTGGTCACGTGGCGAG, -0.01 kcal/mol. Turning to ATTTTCACGTGTTAAT, the “relative binding free energy” value came to 0.31 kcal/mol. As to GGTGACACGTGGAGTC, the “relative binding free energy” value was found to be 0.23 kcal/mol. For GATATCACGTGTTATG the value was 0.21 kcal/mol; for TCTGGCACGTGTATTG, -0.15 kcal/mol. With ACTGTCACGTGGTTAA the figure was 0.13 kcal/mol; with TTATTCACGTGGGTCC, 0.2 kcal/mol; with GGTTGCACGTGTCAGA, 0.06 kcal/mol. For TAATTCACGTGGGCGA the value was 0.1 kcal/mol. As for GGTTGCACGTGGCTGA, the “relative binding free energy” value amounted to 0.01 kcal/mol. As for TAAAGCACGTGATGGT, the “relative binding free energy” value was determined as 0.06 kcal/mol. With AGGGTCACGTGTTCTG the figure was 0.1 kcal/mol. With TGATGCACGTGAGTGA the figure was 0.21 kcal/mol; with TCGGTCACGTGGGTGC, 0.03 kcal/mol.

For the sequence GGTGACACGTGCGGTG, the “relative binding free energy” value was found to be 0.04 kcal/mol. With GTTGGCACGTGGTCGT the figure was -0.04 kcal/mol.

Regarding CAGTGCACGTGATGTT, the “relative binding free energy” value is -0.04 kcal/mol. For TCAAGCACGTGTAGGG, the “relative binding free energy” value is -0.01 kcal/mol.
